Laboratory results taken from the supplement of paper PMC8728848.
Some of the results follow.

Tests used:
Test in all cases: glycan array binding signal (z-score within array); higher = stronger binding
Conditions in all cases: glycan notation: IUPAC condensed, linker removed
Neu5Ac(a2-8)Neu5Ac = biological target: Neu5Ac(a2-8)Neu5Ac
How it was run: (§1)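 The binding signal is a Z-score computed within each array. Data were drawn from 3228 arrays in the Consortium for Functional Glycomics database, restricted to those with a known protein sequence. Scores were averaged over arrays of the same protein sequence at different concentrations or buffers, and over linkers, and negative values can be taken as non-binding.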

[1] = biological target: Neu5Ac(a2-8)Neu5Ac(a2-3)Gal(b1-3)GalNAc(b1-4)[Neu5Ac(a2-3)]Gal(b1-4)Glc
How it was run: as §1

[2] = biological target: Neu5Ac(a2-8)Neu5Ac(a2-3)Gal(b1-3)GalNAc(b1-4)[Neu5Ac(a2-8)Neu5Ac(a2-3)]Gal(b1-4)Glc
How it was run: as §1

[3] = biological target: Neu5Ac(a2-8)Neu5Ac(a2-3)Gal(b1-4)Glc
How it was run: as §1

[4] = biological target: Neu5Ac(a2-8)Neu5Ac(a2-3)Gal(b1-4)GlcNAc
How it was run: as §1

[5] = biological target: Neu5Ac(a2-8)Neu5Ac(a2-3)[Gal(b1-3)GalNAc(b1-4)]Gal(b1-4)Glc
How it was run: as §1

[6] = biological target: Neu5Ac(a2-8)Neu5Ac(a2-3)[GalNAc(b1-4)]Gal(b1-4)Glc
How it was run: as §1

[7] = biological target: Neu5Ac(a2-8)Neu5Ac(a2-8)Neu5Ac
How it was run: as §1

[8] = biological target: Neu5Ac(a2-8)Neu5Ac(a2-8)Neu5Ac(a2-3)Gal(b1-4)Glc
How it was run: as §1

[9] = biological target: Neu5Ac(a2-8)Neu5Ac(a2-8)Neu5Ac(a2-3)[Gal(b1-3)GalNAc(b1-4)]Gal(b1-4)Glc
How it was run: as §1

[10] = biological target: Neu5Ac(a2-8)Neu5Ac(a2-8)Neu5Ac(a2-3)[GalNAc(b1-4)]Gal(b1-4)Glc
How it was run: as §1

[11] = biological target: Neu5Ac(a2-8)Neu5Ac(a2-8)Neu5Ac(a2-8)Neu5Ac(a2-3)[GalNAc(b1-4)]Gal(b1-4)Glc
How it was run: as §1

[12] = biological target: Neu5Ac(a2-8)Neu5Gc(a2-3)Gal(b1-4)GlcNAc
How it was run: as §1

[13] = biological target: Neu5Ac(b2-6)Gal(b1-4)GlcNAc
How it was run: as §1

Neu5Ac(b2-6)GalNAc = biological target: Neu5Ac(b2-6)GalNAc
How it was run: as §1

[14] = biological target: Neu5Ac9Ac(a2-3)Gal(b1-3)GlcNAc
How it was run: as §1

[15] = biological target: Neu5Ac9Ac(a2-3)Gal(b1-4)GlcNAc
How it was run: as §1

[16] = biological target: Neu5Ac9Ac(a2-6)Gal(b1-4)GlcNAc
How it was run: as §1

[17] = biological target: Neu5Gc(a2-3)Gal(b1-3)GlcNAc
How it was run: as §1

[18] = biological target: Neu5Gc(a2-3)Gal(b1-3)[Fuc(a1-4)]GlcNAc
How it was run: as §1

Neu5Gc(a2-3)Gal(b1-4)Glc = biological target: Neu5Gc(a2-3)Gal(b1-4)Glc
How it was run: as §1

[19] = biological target: Neu5Gc(a2-3)Gal(b1-4)GlcNAc
How it was run: as §1

[20] = biological target: Neu5Gc(a2-3)Gal(b1-4)GlcNAc(b1-3)Gal(b1-4)GlcNAc(b1-2)Man(a1-3)[Neu5Gc(a2-3)Gal(b1-4)GlcNAc(b1-3)Gal(b1-4)GlcNAc(b1-2)Man(a1-6)]Man(b1-4)GlcNAc(b1-4)GlcNAc
How it was run: as §1

[21] = biological target: Neu5Gc(a2-3)Gal(b1-4)[Fuc(a1-3)]GlcNAc
How it was run: as §1

[22] = biological target: Neu5Gc(a2-6)Gal(b1-4)GlcNAc
How it was run: as §1

Neu5Gc(a2-6)GalNAc = biological target: Neu5Gc(a2-6)GalNAc
How it was run: as §1

[23] = biological target: Neu5Gc(a2-8)Neu5Ac(a2-3)Gal(b1-4)GlcNAc
How it was run: as §1

[24] = biological target: Neu5Gc(a2-8)Neu5Gc(a2-3)Gal(b1-4)GlcNAc
How it was run: as §1

[25] = biological target: Neu5Gc(a2-8)Neu5Gc(a2-3)Gal(b1-4)GlcNAc(b1-3)Gal(b1-4)GlcNAc
How it was run: as §1

[26] = biological target: Neu5Gc(a2-8)Neu5Gc(a2-6)Gal(b1-4)GlcNAc
How it was run: as §1

[27] = biological target: Neu5Gc(b2-6)Gal(b1-4)GlcNAc
How it was run: as §1

B1: Pwp3 (Candida glabrata) (protein)
chain: MGSSHHHHHHSSGLVPRGSHMASKNPVDFTTVCQFPDNFSKKPGFLATTARLGLWITGNSYKELLNYPGTFTLTTQQASTTTPNIQLRGTDLFTTIYGLTVYPLYLLVELQGYFVPTQSGMYTFSLTGSDDAAIIFIGNPSTFPCDAFKTWPQATANDITVTDSINPSRTLYMVKGVAYPLRIAYYNGLGNGVLNAAFTDPSGTKRTDWNGYIWQYDQCSTCTYK
glycan array binding signal (z-score) (Neu5Ac(a2-8)Neu5Ac): -0.057
glycan array binding signal (z-score) [1]: -0.672
glycan array binding signal (z-score) [2]: -0.209
glycan array binding signal (z-score) [3]: -0.054
glycan array binding signal (z-score) [4]: -0.089
glycan array binding signal (z-score) [5]: -0.185
glycan array binding signal (z-score) [6]: 4.12
glycan array binding signal (z-score) [7]: 0.951
glycan array binding signal (z-score) [8]: -1.21
glycan array binding signal (z-score) [9]: 0.117
glycan array binding signal (z-score) [10]: 1.31
glycan array binding signal (z-score) [11]: -0.198
glycan array binding signal (z-score) [12]: -0.251
glycan array binding signal (z-score) [13]: 0.194
glycan array binding signal (z-score) (Neu5Ac(b2-6)GalNAc): -0.118
glycan array binding signal (z-score) [14]: -0.218
glycan array binding signal (z-score) [15]: -1.06
glycan array binding signal (z-score) [16]: -0.399
glycan array binding signal (z-score) [17]: -1.02
glycan array binding signal (z-score) [18]: -0.136
glycan array binding signal (z-score) (Neu5Gc(a2-3)Gal(b1-4)Glc): -0.033
glycan array binding signal (z-score) [19]: 0.616
glycan array binding signal (z-score) [20]: 0.061
glycan array binding signal (z-score) [21]: -0.672
glycan array binding signal (z-score) [22]: 0.57
glycan array binding signal (z-score) (Neu5Gc(a2-6)GalNAc): -0.448
glycan array binding signal (z-score) [23]: 0.166
glycan array binding signal (z-score) [24]: 0.001
glycan array binding signal (z-score) [25]: 1.5
glycan array binding signal (z-score) [26]: 0.107
glycan array binding signal (z-score) [27]: 1.26
